Measurements as given in publication PMC2739277.
Results are given in words; binding and its absence hold for the method and conditions named. In cells and extracts the contact can be indirect. Some entries that bind do so weakly or less than the wild type.

By UniProt entry, the sequences of proteins in these tests, tags left out.
UniProt Q96CW1: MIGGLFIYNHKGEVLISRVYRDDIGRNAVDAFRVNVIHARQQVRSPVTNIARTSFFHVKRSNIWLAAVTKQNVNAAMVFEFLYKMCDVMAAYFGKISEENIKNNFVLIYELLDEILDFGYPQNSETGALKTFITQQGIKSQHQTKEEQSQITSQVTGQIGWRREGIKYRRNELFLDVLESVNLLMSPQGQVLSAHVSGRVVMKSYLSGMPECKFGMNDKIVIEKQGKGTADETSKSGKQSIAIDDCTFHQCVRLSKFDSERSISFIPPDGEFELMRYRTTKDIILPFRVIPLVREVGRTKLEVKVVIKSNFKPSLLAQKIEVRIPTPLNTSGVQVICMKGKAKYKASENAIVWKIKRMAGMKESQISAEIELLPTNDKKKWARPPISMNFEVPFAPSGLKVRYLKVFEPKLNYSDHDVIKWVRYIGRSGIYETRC

Legend:
[1] = target: T1, wild type PLD1 (rat-origin cDNA) expressed in HeLa cells (rat) (UniProt P70496); assay: co-IP; HeLa cells depleted of endogenous PLD1 and expressing vector, wild type, R304A or R304K PLD1, grown in DMEM with 10% fetal bovine serum; lysates immunoprecipitated with anti-PLD antibody
T1 sequence: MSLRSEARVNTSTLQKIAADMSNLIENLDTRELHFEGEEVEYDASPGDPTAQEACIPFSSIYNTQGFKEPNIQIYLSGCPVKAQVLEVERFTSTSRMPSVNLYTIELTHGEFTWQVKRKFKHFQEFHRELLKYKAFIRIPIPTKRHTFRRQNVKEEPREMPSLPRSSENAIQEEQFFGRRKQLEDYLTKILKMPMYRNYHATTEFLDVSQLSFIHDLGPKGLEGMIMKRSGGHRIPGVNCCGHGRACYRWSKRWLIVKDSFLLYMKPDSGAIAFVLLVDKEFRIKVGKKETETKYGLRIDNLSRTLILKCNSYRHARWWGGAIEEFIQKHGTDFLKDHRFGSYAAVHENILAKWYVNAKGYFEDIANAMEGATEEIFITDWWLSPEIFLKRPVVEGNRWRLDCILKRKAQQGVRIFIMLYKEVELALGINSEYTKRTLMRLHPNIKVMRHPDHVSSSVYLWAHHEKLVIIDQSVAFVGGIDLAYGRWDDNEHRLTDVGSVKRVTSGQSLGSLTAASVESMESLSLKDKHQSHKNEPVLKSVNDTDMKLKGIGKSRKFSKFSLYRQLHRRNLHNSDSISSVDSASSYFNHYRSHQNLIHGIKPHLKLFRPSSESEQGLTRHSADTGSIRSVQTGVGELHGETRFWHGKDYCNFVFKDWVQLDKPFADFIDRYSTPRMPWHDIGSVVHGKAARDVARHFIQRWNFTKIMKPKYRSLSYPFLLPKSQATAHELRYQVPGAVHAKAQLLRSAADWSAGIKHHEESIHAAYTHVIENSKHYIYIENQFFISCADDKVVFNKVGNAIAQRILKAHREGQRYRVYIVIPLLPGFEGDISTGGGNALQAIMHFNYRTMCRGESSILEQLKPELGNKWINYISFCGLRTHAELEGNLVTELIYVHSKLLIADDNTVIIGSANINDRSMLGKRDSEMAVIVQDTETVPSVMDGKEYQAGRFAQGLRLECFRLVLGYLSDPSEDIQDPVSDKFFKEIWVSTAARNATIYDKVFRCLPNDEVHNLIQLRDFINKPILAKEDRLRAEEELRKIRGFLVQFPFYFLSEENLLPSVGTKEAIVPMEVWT

[2] = target: T2, phospholipase D (PLD)1, endogenous in HeLa cells (human (endogenous in HeLa)) (UniProt Q13393); assay: co-IP; HeLa cells serum starved 12 h, EGF 20 nM (control or with t-butanol 0.4%); lysed in buffer A with 1% Triton X-100 and 1% cholic acid; extracts immunoprecipitated with anti-PLD antibody on Protein A-Sepharose, immunoblotted for μ2
T2 sequence: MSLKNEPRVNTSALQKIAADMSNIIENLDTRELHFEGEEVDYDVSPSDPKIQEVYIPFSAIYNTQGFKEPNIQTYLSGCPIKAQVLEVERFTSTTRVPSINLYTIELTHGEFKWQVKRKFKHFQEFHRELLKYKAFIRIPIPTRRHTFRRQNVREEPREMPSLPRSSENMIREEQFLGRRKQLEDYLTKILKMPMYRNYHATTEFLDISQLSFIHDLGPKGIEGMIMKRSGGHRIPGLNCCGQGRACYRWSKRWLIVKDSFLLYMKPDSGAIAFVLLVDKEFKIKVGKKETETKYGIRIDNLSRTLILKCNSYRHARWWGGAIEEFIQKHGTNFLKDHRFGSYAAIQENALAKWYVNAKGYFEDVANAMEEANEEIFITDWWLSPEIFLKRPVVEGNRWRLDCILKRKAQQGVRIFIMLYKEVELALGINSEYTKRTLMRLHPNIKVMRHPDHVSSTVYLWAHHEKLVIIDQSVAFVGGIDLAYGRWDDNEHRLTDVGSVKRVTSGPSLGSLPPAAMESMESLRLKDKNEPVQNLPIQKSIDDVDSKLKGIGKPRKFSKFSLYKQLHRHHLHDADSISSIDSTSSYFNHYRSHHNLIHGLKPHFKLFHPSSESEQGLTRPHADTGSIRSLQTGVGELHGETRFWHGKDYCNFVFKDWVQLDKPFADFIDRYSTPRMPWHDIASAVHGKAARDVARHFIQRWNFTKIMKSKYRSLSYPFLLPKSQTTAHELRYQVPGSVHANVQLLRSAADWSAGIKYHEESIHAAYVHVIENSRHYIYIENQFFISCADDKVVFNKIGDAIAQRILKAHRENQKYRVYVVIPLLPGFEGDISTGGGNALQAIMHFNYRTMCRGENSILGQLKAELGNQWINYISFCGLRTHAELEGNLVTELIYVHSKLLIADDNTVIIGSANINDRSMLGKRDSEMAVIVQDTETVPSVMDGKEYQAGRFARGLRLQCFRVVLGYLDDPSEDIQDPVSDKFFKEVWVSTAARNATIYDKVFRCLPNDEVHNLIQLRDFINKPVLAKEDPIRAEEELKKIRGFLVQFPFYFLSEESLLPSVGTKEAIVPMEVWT

[3] = target: T2, phospholipase D (PLD)1, endogenous in HeLa cells (human (endogenous in HeLa)); assay: co-IP; as a1, but 1-butanol (0.4%) added 5 min prior to EGF (20 nM) to inhibit phosphatidic acid production
[4] = target: epidermal growth factor receptor (EGFR), endogenous in HeLa cells (human (endogenous in HeLa)) (UniProt P00533); assay: condition: only in cells transfected with PLD1 (R304A), PLD1 (R158Q) or PLD1 (K898R) instead of wild type PLD1; co-IP; as a8, in the cells transfected with PLD1 (R304A), PLD1 (R158Q) or PLD1 (K898R) instead of wild type PLD1
[5] = target: epidermal growth factor receptor (EGFR), endogenous in HeLa cells (human (endogenous in HeLa)) (UniProt P00533); assay: co-IP; extracts of EGF-treated HeLa cells transfected with PLD1 constructs, immunoprecipitated with anti-EGFR antibody and immunoblotted
[6] = target: epidermal growth factor receptor (EGFR), endogenous in HeLa cells (human (endogenous in HeLa)) (UniProt P00533); assay: co-IP; EGFR-μ2 association in cells without or with transient expression of PLD1 fragment 296–312 (Figure 5C)

binding [2]: binds
Substance: μ2 subunit of AP2, endogenous in HeLa cells (from UniProt Q96CW1 1-435)
binding [1]: binds
binding [3]: no binding (condition: with 1-butanol (0.4%))
binding [4]: no binding
binding [5]: binds
binding [6]: binds
